# The list shows a part of the results. The list includes weakly bound sequences.
# Molecular target: T1, MBP-FoxP3dN (UniProt Q99JB6)
# T1 sequence: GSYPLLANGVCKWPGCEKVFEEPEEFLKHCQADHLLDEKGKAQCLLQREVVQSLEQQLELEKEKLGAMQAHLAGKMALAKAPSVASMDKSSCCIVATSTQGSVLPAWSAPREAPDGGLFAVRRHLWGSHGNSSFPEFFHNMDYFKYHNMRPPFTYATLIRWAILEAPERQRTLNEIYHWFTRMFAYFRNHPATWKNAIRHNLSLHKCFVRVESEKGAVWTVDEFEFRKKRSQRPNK
# Assay: PD-seq (MBP pull-down with sequencing)
# Details: 20 mM Tris-HCl pH 7.5, 100 mM NaCl, 1.5 mM MgCl2, 0.4 uM protein, 0.1 uM dsDNA library, 30 min, room temperature, amylose pull-down; high values mean tight binding; double strand, one strand shown
row,Sequence,binding signal (RPM ratio (pull-down/input))
1,GATGATTGTTCTCCCAGCTGATGAATTATTTAGTTCGAGTAAACAAATTTTCCTAATCTTTCTGTTCAAGCGCCATCTAC,1.29
2,GATGATTGTTCTCCCAGCTGATGAATTACAATTCTCGAGTAAACAAATTTTCCTAATCTTTCTGTTCAAGCGCCATCTAC,0.786
3,GATGATTGTTCTCCCAGCTGATGAATTTAAGGTGTCGAGTAAACAAATTTTCCTAATCTTTCTGTTCAAGCGCCATCTAC,0.772
4,GATGATTGTTCTCCCAGCTGATGAATTTCGATATTCGAGTAAACAAATTTTCCTAATCTTTCTGTTCAAGCGCCATCTAC,1.29
5,GATGATTGTTCTCCCAGCTGATGAATTTCCTGACTCGAGTAAACAAATTTTCCTAATCTTTCTGTTCAAGCGCCATCTAC,0.182
6,GATGATTGTTCTCCCAGCTGATGAATTTCTTCCATCGAGTAAACAAATTTTCCTAATCTTTCTGTTCAAGCGCCATCTAC,0.2
7,GATGATTGTTCTCCCAGCTGATGAATTAGATCGGTCGAGTAAACAAATTTTCCTAATCTTTCTGTTCAAGCGCCATCTAC,0.237
8,GATGATTGTTCTCCCAGCTGATGAATTCAGTTGGTCGAGTAAACAAATTTTCCTAATCTTTCTGTTCAAGCGCCATCTAC,2.43
9,GATGATTGTTCTCCCAGCTGATGAATTAGGAGCATCGAGTAAACAAATTTTCCTAATCTTTCTGTTCAAGCGCCATCTAC,0.862
10,GATGATTGTTCTCCCAGCTGATGAATTGTAAAAGTCGAGTAAACAAATTTTCCTAATCTTTCTGTTCAAGCGCCATCTAC,0.185
11,GATGATTGTTCTCCCAGCTGATGAATTACAATCTTCGAGTAAACAAATTTTCCTAATCTTTCTGTTCAAGCGCCATCTAC,0.52
12,GATGATTGTTCTCCCAGCTGATGAATTCGCGCGCTCGAGTAAACAAATTTTCCTAATCTTTCTGTTCAAGCGCCATCTAC,0.634
13,GATGATTGTTCTCCCAGCTGATGAATTTGTCTCATCGAGTAAACAAATTTTCCTAATCTTTCTGTTCAAGCGCCATCTAC,2.75
14,GATGATTGTTCTCCCAGCTGATGAATTAATCATGTCGAGTAAACAAATTTTCCTAATCTTTCTGTTCAAGCGCCATCTAC,0.69
15,GATGATTGTTCTCCCAGCTGATGAATTGGACAGATCGAGTAAACAAATTTTCCTAATCTTTCTGTTCAAGCGCCATCTAC,0.195
16,GATGATTGTTCTCCCAGCTGATGAATTCGATAATTCGAGTAAACAAATTTTCCTAATCTTTCTGTTCAAGCGCCATCTAC,0.369
17,GATGATTGTTCTCCCAGCTGATGAATTTTGTCTCTCGAGTAAACAAATTTTCCTAATCTTTCTGTTCAAGCGCCATCTAC,2.39
18,GATGATTGTTCTCCCAGCTGATGAATTTTCCAATTCGAGTAAACAAATTTTCCTAATCTTTCTGTTCAAGCGCCATCTAC,0.25
19,GATGATTGTTCTCCCAGCTGATGAATTCTGAGGTTCGAGTAAACAAATTTTCCTAATCTTTCTGTTCAAGCGCCATCTAC,0.379
20,GATGATTGTTCTCCCAGCTGATGAATTTACGCGGTCGAGTAAACAAATTTTCCTAATCTTTCTGTTCAAGCGCCATCTAC,0.407
21,GATGATTGTTCTCCCAGCTGATGAATTCATCAACTCGAGTAAACAAATTTTCCTAATCTTTCTGTTCAAGCGCCATCTAC,0.418

row,Sequence,binding signal (RPM ratio (pull-down/input))
1,GATGATTGTTCTCCCAGCTGATGAATTATTTCCATCGAGTAAACAAATTTTCCTAATCTTTCTGTTCAAGCGCCATCTAC,0.352
2,GATGATTGTTCTCCCAGCTGATGAATTCTTAAAATCGAGTAAACAAATTTTCCTAATCTTTCTGTTCAAGCGCCATCTAC,0.218
3,GATGATTGTTCTCCCAGCTGATGAATTGAAGAAATCGAGTAAACAAATTTTCCTAATCTTTCTGTTCAAGCGCCATCTAC,0.256
4,GATGATTGTTCTCCCAGCTGATGAATTTACAAACTCGAGTAAACAAATTTTCCTAATCTTTCTGTTCAAGCGCCATCTAC,0.627
5,GATGATTGTTCTCCCAGCTGATGAATTCCCATTATCGAGTAAACAAATTTTCCTAATCTTTCTGTTCAAGCGCCATCTAC,0.458
6,GATGATTGTTCTCCCAGCTGATGAATTAGACCGGTCGAGTAAACAAATTTTCCTAATCTTTCTGTTCAAGCGCCATCTAC,0.227
7,GATGATTGTTCTCCCAGCTGATGAATTGAAAATCTCGAGTAAACAAATTTTCCTAATCTTTCTGTTCAAGCGCCATCTAC,0.216
8,GATGATTGTTCTCCCAGCTGATGAATTTCTGCCTTCGAGTAAACAAATTTTCCTAATCTTTCTGTTCAAGCGCCATCTAC,2.33
9,GATGATTGTTCTCCCAGCTGATGAATTAGTGTGTTCGAGTAAACAAATTTTCCTAATCTTTCTGTTCAAGCGCCATCTAC,3.52
10,GATGATTGTTCTCCCAGCTGATGAATTGCAGTTCTCGAGTAAACAAATTTTCCTAATCTTTCTGTTCAAGCGCCATCTAC,1.13
11,GATGATTGTTCTCCCAGCTGATGAATTCTAGGGATCGAGTAAACAAATTTTCCTAATCTTTCTGTTCAAGCGCCATCTAC,0.272
12,GATGATTGTTCTCCCAGCTGATGAATTGTTGGTTTCGAGTAAACAAATTTTCCTAATCTTTCTGTTCAAGCGCCATCTAC,5.31
13,GATGATTGTTCTCCCAGCTGATGAATTATGCCGATCGAGTAAACAAATTTTCCTAATCTTTCTGTTCAAGCGCCATCTAC,1.1
14,GATGATTGTTCTCCCAGCTGATGAATTTTAAAACTCGAGTAAACAAATTTTCCTAATCTTTCTGTTCAAGCGCCATCTAC,0.218
15,GATGATTGTTCTCCCAGCTGATGAATTCTTTTCGTCGAGTAAACAAATTTTCCTAATCTTTCTGTTCAAGCGCCATCTAC,0.311
16,GATGATTGTTCTCCCAGCTGATGAATTCCAAGTTTCGAGTAAACAAATTTTCCTAATCTTTCTGTTCAAGCGCCATCTAC,0.322
17,GATGATTGTTCTCCCAGCTGATGAATTGTCTGTCTCGAGTAAACAAATTTTCCTAATCTTTCTGTTCAAGCGCCATCTAC,0.422
18,GATGATTGTTCTCCCAGCTGATGAATTGGCCACGTCGAGTAAACAAATTTTCCTAATCTTTCTGTTCAAGCGCCATCTAC,0.526
19,GATGATTGTTCTCCCAGCTGATGAATTGCTTCCATCGAGTAAACAAATTTTCCTAATCTTTCTGTTCAAGCGCCATCTAC,0.59
20,GATGATTGTTCTCCCAGCTGATGAATTGAGGTTGTCGAGTAAACAAATTTTCCTAATCTTTCTGTTCAAGCGCCATCTAC,0.8
21,GATGATTGTTCTCCCAGCTGATGAATTCGTTAGGTCGAGTAAACAAATTTTCCTAATCTTTCTGTTCAAGCGCCATCTAC,0.853

row,Sequence,binding signal (RPM ratio (pull-down/input))
1,GATGATTGTTCTCCCAGCTGATGAATTTGTTTGTTCGAGTAAACAAATTTTCCTAATCTTTCTGTTCAAGCGCCATCTAC,7.56
2,GATGATTGTTCTCCCAGCTGATGAATTGGAGTCATCGAGTAAACAAATTTTCCTAATCTTTCTGTTCAAGCGCCATCTAC,0.47
3,GATGATTGTTCTCCCAGCTGATGAATTCGCCTAGTCGAGTAAACAAATTTTCCTAATCTTTCTGTTCAAGCGCCATCTAC,0.345
4,GATGATTGTTCTCCCAGCTGATGAATTTTCGTTATCGAGTAAACAAATTTTCCTAATCTTTCTGTTCAAGCGCCATCTAC,0.607
5,GATGATTGTTCTCCCAGCTGATGAATTCCGACTATCGAGTAAACAAATTTTCCTAATCTTTCTGTTCAAGCGCCATCTAC,0.64
6,GATGATTGTTCTCCCAGCTGATGAATTCGCGTAGTCGAGTAAACAAATTTTCCTAATCTTTCTGTTCAAGCGCCATCTAC,0.558
7,GATGATTGTTCTCCCAGCTGATGAATTTCGACAGTCGAGTAAACAAATTTTCCTAATCTTTCTGTTCAAGCGCCATCTAC,0.471
8,GATGATTGTTCTCCCAGCTGATGAATTTAAGCGATCGAGTAAACAAATTTTCCTAATCTTTCTGTTCAAGCGCCATCTAC,0.503
9,GATGATTGTTCTCCCAGCTGATGAATTATTTTGATCGAGTAAACAAATTTTCCTAATCTTTCTGTTCAAGCGCCATCTAC,1.11
10,GATGATTGTTCTCCCAGCTGATGAATTGGGGACATCGAGTAAACAAATTTTCCTAATCTTTCTGTTCAAGCGCCATCTAC,0.475
11,GATGATTGTTCTCCCAGCTGATGAATTTCTGATTTCGAGTAAACAAATTTTCCTAATCTTTCTGTTCAAGCGCCATCTAC,0.41
12,GATGATTGTTCTCCCAGCTGATGAATTTTTTTTTTCGAGTAAACAAATTTTCCTAATCTTTCTGTTCAAGCGCCATCTAC,0.217
13,GATGATTGTTCTCCCAGCTGATGAATTGGATCGCTCGAGTAAACAAATTTTCCTAATCTTTCTGTTCAAGCGCCATCTAC,0.278
14,GATGATTGTTCTCCCAGCTGATGAATTAGACCTATCGAGTAAACAAATTTTCCTAATCTTTCTGTTCAAGCGCCATCTAC,0.42
15,GATGATTGTTCTCCCAGCTGATGAATTGATATCGTCGAGTAAACAAATTTTCCTAATCTTTCTGTTCAAGCGCCATCTAC,0.869
16,GATGATTGTTCTCCCAGCTGATGAATTGCTGTAATCGAGTAAACAAATTTTCCTAATCTTTCTGTTCAAGCGCCATCTAC,0.909
17,GATGATTGTTCTCCCAGCTGATGAATTTACTGGCTCGAGTAAACAAATTTTCCTAATCTTTCTGTTCAAGCGCCATCTAC,0.472
18,GATGATTGTTCTCCCAGCTGATGAATTCCGGACGTCGAGTAAACAAATTTTCCTAATCTTTCTGTTCAAGCGCCATCTAC,0.243
19,GATGATTGTTCTCCCAGCTGATGAATTGTTTGACTCGAGTAAACAAATTTTCCTAATCTTTCTGTTCAAGCGCCATCTAC,1.33
20,GATGATTGTTCTCCCAGCTGATGAATTAGGAGGCTCGAGTAAACAAATTTTCCTAATCTTTCTGTTCAAGCGCCATCTAC,0.442
21,GATGATTGTTCTCCCAGCTGATGAATTTCTCGGTTCGAGTAAACAAATTTTCCTAATCTTTCTGTTCAAGCGCCATCTAC,0.261
